{"source": "the supplement of paper PMC8728848", "assay_in_all_cases": "glycan array binding signal (z-score within array); higher = stronger binding", "settings_in_all_cases": "glycan notation: IUPAC condensed, linker removed", "key": {"[1]": {"target": "Gal(a1-4)Gal(b1-4)GlcNAc(b1-2)Man(a1-3)[Gal(a1-4)Gal(b1-4)GlcNAc(b1-2)Man(a1-6)]Man(b1-4)GlcNAc(b1-4)GlcNAc", "procedure,_shortened": "(§1)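 Glycan array data were curated from 3228 arrays in the Consortium for Functional Glycomics database and kept only where the protein sequence was available. Glycan names were converted to IUPAC-condensed notation, and columns mapping to the same glycan were averaged. The binding signal is a within-array Z-score, averaged across arrays of the same protein sequence at different concentrations or buffers and across linkers. Negative Z-scores can be read as non-binding.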"}, "[2]": {"target": "Gal(a1-4)Gal(b1-4)GlcNAc(b1-3)Gal(b1-4)Glc", "procedure,_shortened": "as §1"}, "[3]": {"target": "Gal(a1-4)GlcNAc", "procedure,_shortened": "as §1"}, "[4]": {"target": "Gal(a1-6)Glc", "procedure,_shortened": "as §1"}, "[5]": {"target": "Gal(b1-2)Gal", "procedure,_shortened": "as §1"}, "[6]": {"target": "Gal(b1-3)Gal", "procedure,_shortened": "as §1"}, "[7]": {"target": "Gal(b1-3)Gal(b1-4)GlcNAc", "procedure,_shortened": "as §1"}, "[8]": {"target": "Gal(b1-3)Gal(b1-4)GlcNAc(b1-2)Man(a1-3)[Gal(b1-3)Gal(b1-4)GlcNAc(b1-2)Man(a1-6)]Man(b1-4)GlcNAc(b1-4)GlcNAc", "procedure,_shortened": "as §1"}, "[9]": {"target": "Gal(b1-3)GalNAc", "procedure,_shortened": "as §1"}, "[10]": {"target": "Gal(b1-3)GalNAc(a1-3)[Fuc(a1-2)]Gal(b1-4)Glc", "procedure,_shortened": "as §1"}, "[11]": {"target": "Gal(b1-3)GalNAc(a1-3)[Fuc(a1-2)]Gal(b1-4)GlcNAc", "procedure,_shortened": "as §1"}, "[12]": {"target": "Gal(b1-3)GalNAc(b1-3)Gal(a1-4)Gal(b1-4)Glc", "procedure,_shortened": "as §1"}, "[13]": {"target": "Gal(b1-3)GalNAc(b1-4)Gal(b1-4)Glc", "procedure,_shortened": "as §1"}, "[14]": {"target": "Gal(b1-3)GalNAc(b1-4)[Neu5Ac(a2-3)]Gal(b1-4)Glc", "procedure,_shortened": "as §1"}, "[15]": {"target": "Gal(b1-3)GlcNAc", "procedure,_shortened": "as §1"}, "[16]": {"target": "Gal(b1-3)GlcNAc(a1-6)Gal(b1-4)GlcNAc", "procedure,_shortened": "as §1"}, "[17]": {"target": "Gal(b1-3)GlcNAc(b1-2)Man(a1-3)[Gal(b1-3)GlcNAc(b1-2)Man(a1-6)]Man(b1-4)GlcNAc(b1-4)GlcNAc", "procedure,_shortened": "as §1"}, "[18]": {"target": "Gal(b1-3)GlcNAc(b1-2)Man(a1-3)[Gal(b1-3)GlcNAc(b1-2)Man(a1-6)]Man(b1-4)GlcNAc(b1-4)[Fuc(a1-6)]GlcNAc", "procedure,_shortened": "as §1"}, "[19]": {"target": "Gal(b1-3)GlcNAc(b1-2)[Gal(b1-3)GlcNAc(b1-6)]Man(a1-6)[Gal(b1-3)GlcNAc(b1-2)Man(a1-3)]Man(b1-4)GlcNAc(b1-4)GlcNAc", "procedure,_shortened": "as §1"}, "[20]": {"target": "Gal(b1-3)GlcNAc(b1-3)Gal(b1-3)GlcNAc", "procedure,_shortened": "as §1"}, "[21]": {"target": "Gal(b1-3)GlcNAc(b1-3)Gal(b1-4)Glc", "procedure,_shortened": "as §1"}, "[22]": {"target": "Gal(b1-3)GlcNAc(b1-3)Gal(b1-4)GlcNAc", "procedure,_shortened": "as §1"}, "[23]": {"target": "Gal(b1-3)GlcNAc(b1-3)Gal(b1-4)GlcNAc(b1-6)[Gal(b1-3)GlcNAc(b1-3)]Gal(b1-4)Glc", "procedure,_shortened": "as §1"}, "[24]": {"target": "Gal(b1-3)GlcNAc(b1-3)Gal(b1-4)[Fuc(a1-3)]GlcNAc(b1-6)[Gal(b1-3)GlcNAc(b1-3)]Gal(b1-4)Glc", "procedure,_shortened": "as §1"}, "[25]": {"target": "Gal(b1-3)GlcNAc(b1-3)GalNAc", "procedure,_shortened": "as §1"}, "[26]": {"target": "Gal(b1-3)GlcNAc(b1-6)Gal(b1-4)GlcNAc", "procedure,_shortened": "as §1"}, "[27]": {"target": "Gal(b1-3)[Fuc(a1-4)]GlcNAc", "procedure,_shortened": "as §1"}, "[28]": {"target": "Gal(b1-3)[Fuc(a1-4)]GlcNAc(b1-2)Man(a1-3)[Gal(b1-3)[Fuc(a1-4)]GlcNAc(b1-2)Man(a1-6)]Man(b1-4)GlcNAc(b1-4)GlcNAc", "procedure,_shortened": "as §1"}, "[29]": {"target": "Gal(b1-3)[Fuc(a1-4)]GlcNAc(b1-2)Man(a1-3)[Gal(b1-3)[Fuc(a1-4)]GlcNAc(b1-2)Man(a1-6)]Man(b1-4)GlcNAc(b1-4)[Fuc(a1-6)]GlcNAc", "procedure,_shortened": "as §1"}, "[30]": {"target": "Gal(b1-3)[Fuc(a1-4)]GlcNAc(b1-3)Gal(b1-3)[Fuc(a1-4)]GlcNAc", "procedure,_shortened": "as §1"}, "[31]": {"target": "Gal(b1-3)[Fuc(a1-4)]GlcNAc(b1-3)Gal(b1-4)GlcNAc", "procedure,_shortened": "as §1"}, "[32]": {"target": "Gal(b1-3)[Fuc(a1-4)]GlcNAc(b1-3)Gal(b1-4)[Fuc(a1-3)]GlcNAc", "procedure,_shortened": "as §1"}, "[33]": {"target": "Gal(b1-3)[GlcNAc(b1-6)]GalNAc", "procedure,_shortened": "as §1"}, "[34]": {"target": "Gal(b1-3)[Neu5Ac(a2-6)]GalNAc", "procedure,_shortened": "as §1"}, "[35]": {"target": "Gal(b1-3)[Neu5Ac(a2-6)]GlcNAc(b1-6)Gal(b1-4)Glc", "procedure,_shortened": "as §1"}, "[36]": {"target": "Gal(b1-3)[Neu5Ac(b2-6)]GalNAc", "procedure,_shortened": "as §1"}, "[37]": {"target": "Gal(b1-4)Gal", "procedure,_shortened": "as §1"}, "[38]": {"target": "Gal(b1-4)GalNAc(a1-3)[Fuc(a1-2)]Gal(b1-4)GlcNAc", "procedure,_shortened": "as §1"}, "[39]": {"target": "Gal(b1-4)GalNAc(b1-3)[Fuc(a1-2)]Gal(b1-4)GlcNAc", "procedure,_shortened": "as §1"}, "[40]": {"target": "Gal(b1-4)Glc", "procedure,_shortened": "as §1"}, "[41]": {"target": "Gal(b1-4)Glc6S", "procedure,_shortened": "as §1"}, "[42]": {"target": "Gal(b1-4)GlcNAc", "procedure,_shortened": "as §1"}, "[43]": {"target": "Gal(b1-4)GlcNAc(a1-6)Gal(b1-4)GlcNAc", "procedure,_shortened": "as §1"}, "[44]": {"target": "Gal(b1-4)GlcNAc(b1-2)Man", "procedure,_shortened": "as §1"}, "[45]": {"target": "Gal(b1-4)GlcNAc(b1-2)Man(a1-3)Man(b1-4)GlcNAc(b1-4)GlcNAc", "procedure,_shortened": "as §1"}}, "note": "The list shows a part of the results.", "data": [{"binder": "Gz-CVNH (Gibberella zeae) (protein) MGSSHHHHHHSSGLVPRGSHMGNFHESSNNIWLEDGHILHAECGNGEGDYVESTLDLDYYIGNDDGSFSWGGENFSGSASNITLDIEGDDNIPVLRAELNPMDGDPVEANVNLSERIGNDCGTLIFLA", "values": [{"measurement": "glycan array binding signal (z-score)", "setting": "[1]", "value": -0.039}, {"measurement": "glycan array binding signal (z-score)", "setting": "[2]", "value": -0.122}, {"measurement": "glycan array binding signal (z-score)", "setting": "[3]", "value": -0.153}, {"measurement": "glycan array binding signal (z-score)", "setting": "[4]", "value": -0.128}, {"measurement": "glycan array binding signal (z-score)", "setting": "[5]", "value": -0.154}, {"measurement": "glycan array binding signal (z-score)", "setting": "[6]", "value": -0.164}, {"measurement": "glycan array binding signal (z-score)", "setting": "[7]", "value": -0.138}, {"measurement": "glycan array binding signal (z-score)", "setting": "[8]", "value": -0.135}, {"measurement": "glycan array binding signal (z-score)", "setting": "[9]", "value": -0.113}, {"measurement": "glycan array binding signal (z-score)", "setting": "[10]", "value": -0.149}, {"measurement": "glycan array binding signal (z-score)", "setting": "[11]", "value": -0.164}, {"measurement": "glycan array binding signal (z-score)", "setting": "[12]", "value": -0.114}, {"measurement": "glycan array binding signal (z-score)", "setting": "[13]", "value": -0.154}, {"measurement": "glycan array binding signal (z-score)", "setting": "[14]", "value": -0.15}, {"measurement": "glycan array binding signal (z-score)", "setting": "[15]", "value": -0.107}, {"measurement": "glycan array binding signal (z-score)", "setting": "[16]", "value": -0.113}, {"measurement": "glycan array binding signal (z-score)", "setting": "[17]", "value": -0.068}, {"measurement": "glycan array binding signal (z-score)", "setting": "[18]", "value": -0.138}, {"measurement": "glycan array binding signal (z-score)", "setting": "[19]", "value": -0.096}, {"measurement": "glycan array binding signal (z-score)", "setting": "[20]", "value": -0.143}, {"measurement": "glycan array binding signal (z-score)", "setting": "[21]", "value": -0.156}, {"measurement": "glycan array binding signal (z-score)", "setting": "[22]", "value": -0.089}, {"measurement": "glycan array binding signal (z-score)", "setting": "[23]", "value": -0.103}, {"measurement": "glycan array binding signal (z-score)", "setting": "[24]", "value": -0.092}, {"measurement": "glycan array binding signal (z-score)", "setting": "[25]", "value": -0.13}, {"measurement": "glycan array binding signal (z-score)", "setting": "[26]", "value": -0.143}, {"measurement": "glycan array binding signal (z-score)", "setting": "[27]", "value": -0.15}, {"measurement": "glycan array binding signal (z-score)", "setting": "[28]", "value": -0.143}, {"measurement": "glycan array binding signal (z-score)", "setting": "[29]", "value": -0.083}, {"measurement": "glycan array binding signal (z-score)", "setting": "[30]", "value": -0.126}, {"measurement": "glycan array binding signal (z-score)", "setting": "[31]", "value": -0.128}, {"measurement": "glycan array binding signal (z-score)", "setting": "[32]", "value": -0.106}, {"measurement": "glycan array binding signal (z-score)", "setting": "[33]", "value": -0.118}, {"measurement": "glycan array binding signal (z-score)", "setting": "[34]", "value": -0.15}, {"measurement": "glycan array binding signal (z-score)", "setting": "[35]", "value": -0.1}, {"measurement": "glycan array binding signal (z-score)", "setting": "[36]", "value": -0.129}, {"measurement": "glycan array binding signal (z-score)", "setting": "[37]", "value": -0.151}, {"measurement": "glycan array binding signal (z-score)", "setting": "[38]", "value": -0.151}, {"measurement": "glycan array binding signal (z-score)", "setting": "[39]", "value": -0.137}, {"measurement": "glycan array binding signal (z-score)", "setting": "[40]", "value": -0.136}, {"measurement": "glycan array binding signal (z-score)", "setting": "[41]", "value": -0.142}, {"measurement": "glycan array binding signal (z-score)", "setting": "[42]", "value": -0.141}, {"measurement": "glycan array binding signal (z-score)", "setting": "[43]", "value": -0.121}, {"measurement": "glycan array binding signal (z-score)", "setting": "[44]", "value": -0.149}, {"measurement": "glycan array binding signal (z-score)", "setting": "[45]", "value": -0.132}]}]}
